Out of some 310,000 compounds screened, about 14,000 (4.5%) showed an effect of 50% or more. The effect is printed as a negative number. The list shows a part of the results.
Each compound was assayed against human ether-à-go-go-related gene (hERG) potassium channel (human, UniProt Q12809) (assay: primary screen, population patch clamp on CHO cells stably expressing hERG).
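Also: peak tail current of the secondary pulse compared with the same well before compound.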

human ether-à-go-go-related gene (hERG) potassium channel, sequence (Q12809 whole entry, looked up): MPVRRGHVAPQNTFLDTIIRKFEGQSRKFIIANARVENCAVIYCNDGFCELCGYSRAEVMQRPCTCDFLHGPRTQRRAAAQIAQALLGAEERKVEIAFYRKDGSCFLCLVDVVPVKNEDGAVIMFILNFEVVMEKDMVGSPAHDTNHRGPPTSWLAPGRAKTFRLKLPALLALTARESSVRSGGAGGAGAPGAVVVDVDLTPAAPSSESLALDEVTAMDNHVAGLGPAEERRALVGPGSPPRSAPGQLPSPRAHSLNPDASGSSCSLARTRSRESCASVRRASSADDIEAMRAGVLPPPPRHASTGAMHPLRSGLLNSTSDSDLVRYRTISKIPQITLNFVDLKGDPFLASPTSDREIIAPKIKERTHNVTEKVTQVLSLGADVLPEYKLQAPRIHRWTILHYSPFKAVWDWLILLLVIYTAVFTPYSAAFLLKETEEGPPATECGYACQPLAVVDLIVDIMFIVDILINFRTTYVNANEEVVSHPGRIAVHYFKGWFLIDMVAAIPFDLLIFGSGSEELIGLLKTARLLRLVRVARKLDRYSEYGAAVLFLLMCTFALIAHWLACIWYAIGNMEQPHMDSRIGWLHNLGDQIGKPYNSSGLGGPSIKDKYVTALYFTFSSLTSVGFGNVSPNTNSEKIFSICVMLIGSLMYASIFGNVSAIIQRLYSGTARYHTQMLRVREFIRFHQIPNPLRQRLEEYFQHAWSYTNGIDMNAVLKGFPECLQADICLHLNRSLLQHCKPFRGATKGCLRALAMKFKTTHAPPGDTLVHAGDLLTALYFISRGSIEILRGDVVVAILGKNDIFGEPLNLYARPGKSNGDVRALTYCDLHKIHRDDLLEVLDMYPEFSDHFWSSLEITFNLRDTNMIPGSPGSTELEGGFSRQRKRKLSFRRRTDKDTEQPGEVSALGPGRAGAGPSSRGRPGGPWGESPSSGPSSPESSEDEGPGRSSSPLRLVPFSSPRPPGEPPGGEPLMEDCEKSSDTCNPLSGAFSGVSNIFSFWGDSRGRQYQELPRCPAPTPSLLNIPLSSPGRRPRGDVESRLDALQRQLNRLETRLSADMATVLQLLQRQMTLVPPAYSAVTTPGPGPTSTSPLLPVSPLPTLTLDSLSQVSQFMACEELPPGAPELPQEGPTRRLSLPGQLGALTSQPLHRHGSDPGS

In order of rising “hERG current change (%, negative = inhibition) at 10uM” value:
1. Nc1nc(N2CCCCC2)nc(N2CCCCC2)n1  -78.2%
2. CC(=O)N1N=C(c2ccc(NS(C)(=O)=O)cc2)CC1c1ccc2nccnc2c1 (centres unmarked)  -63.2%
3. Br.COc1ccc(C2=CSC3=NCCN23)cc1Br  -50.7%
4. O=C(c1ccco1)N1CCN(C(c2ccccn2)c2nnnn2C2CCCC2)CC1 (centres unmarked)  -36.9%
5. O=C(C1CCCN(S(=O)(=O)c2cc(Cl)ccc2Cl)C1)N1CCOCC1 (centres unmarked)  -33.2%
6. O=C(NCC1CCCO1)/C(=C\c1cccc([N+](=O)[O-])c1)NC(=O)c1ccccc1 (centres unmarked)  -33%
7. Nc1nc2n(n1)C(c1cccc(Cl)c1)CC(c1ccc(F)cc1)N2 (centres unmarked)  -27.3%
8. Cc1ccc(S(=O)(=O)Nc2ccc3c(c2)ncn3C(C)(C)C)cc1  -27.2%
9. O=S(=O)(c1cccc(-c2cn3cccnc3n2)c1)N1CCCCCC1  -23.4%
10. COc1ccccc1NC(=O)N(Cc1ccco1)Cc1cc2cccc(C)c2[nH]c1=O  -18%
11. COc1ccc(S(=O)(=O)N2CCN(Cc3ccccc3[N+](=O)[O-])CC2)cc1  -15.2%
12. CCCNC(=O)c1onc(CS(=O)(=O)c2cccc(OC)c2)c1C(=O)NCCC  -12.5%
13. CC1(C)NC(=O)N(CCCOc2ccc3c(c2)CCC3)C1=O  -12%
14. CC1(C)CC(=O)C=C(NCc2cccc(C(F)(F)F)c2)C1  -11.5%
15. COc1cc(/C=N/NC(=O)c2cc(-c3ccccc3C)nc3ccccc23)cc(OC)c1O  -9.98%
16. CCCn1c(=S)[nH]c2cc(C(=O)N3CCN(C4CCCCC4)CC3)ccc2c1=O  -9.29%
17. Cc1ccc(NC(=O)[C@@H]2CCCN2C(=O)[C@@H]2Cc3ccccc3CN2)c(C)c1  -7.91%
18. CCOc1ccc2nc(Nc3nc(CSc4nnnn4-c4ccccc4)cc(=O)[nH]3)nc(C)c2c1  -7.36%
19. Cc1ccc(-c2nnc(SCC(=O)Nc3ccc(S(=O)(=O)N4CCCCCC4)cc3)o2)cc1  -7.29%
20. COc1ccc(N)c2c1OCCC2=O  -6.63%
21. O=C(CCCC(=O)N(CC(=O)NC1CCCCC1)Cc1ccccc1)Nc1ccccn1  -6.57%
22. COc1cccc(C2C3=C(N=C4SCC(=O)N42)c2ccccc2CC3)c1OC (centres unmarked)  -5.79%
23. O=C(NC1CCC(O)CC1)c1ccccc1OCc1ccc(F)cc1 (centres unmarked)  -3.52%
24. O=C(Nc1ccc2c(c1)OCCO2)c1cccc(Br)c1  -3.1%
25. CCCCn1c(N)c(N(CCC(C)C)C(=O)c2ccc(COc3ccccc3)o2)c(=O)[nH]c1=O  -1.86%
26. CC1=CC(C)(C)N2C(=O)C3(C(C#N)=C(N)Oc4cc(C)oc(=O)c43)c3cccc1c32 (centres unmarked)  0.638%
27. CC(=O)c1cnc2nc(SCc3ccccc3)nn2c1C  0.852%
28. O=C(CN1C(=O)COc2ccc(Cl)cc21)Nc1ccc(N2CCOCC2)cc1  0.968%
29. O=S(=O)(c1cccc(Cl)c1)N1CCC(c2nc3ccccc3[nH]2)CC1  2.21%
30. CC(=O)Nc1ccc(NC(=O)/C(Cl)=C/c2ccccc2)cc1  2.65%
31. COc1cc(C(=O)NC2CCCc3ccccc32)cc(OC)c1OC (centres unmarked)  4.25%
32. Cc1ccc(S(=O)(=O)c2nnn3c2nc(NC2CCN(Cc4ccccc4)CC2)c2ccccc23)cc1C  4.27%
33. CCSCc1nnc(SCC(=O)Nc2cc(F)ccc2C)n1C  5.33%
34. COC(=O)CCC(=O)N1CCCC(CO)(Cc2ccccc2F)C1 (centres unmarked)  6.35%
35. O=[N+]([O-])c1ccc(O)c(/C=N/n2c(CO)nc3ccccc32)c1  6.36%
36. COc1ccc(CCC(=O)Nc2sccc2C#N)cc1  7.04%
37. C=C(C)C(=O)N1CC2(CC(c3cccc(NC(=O)/C=C\C)c3)=NO2)C[C@H]1C(N)=O (some centres unmarked)  7.33%
38. Cc1ccc(C(=O)NC(NC(=O)c2ccc(C)cc2)C(Cl)Cl)cc1  7.41%
39. Cc1ccc(C)c(NC(=O)c2ccccc2O)c1  9.07%
40. O=C(Nc1ccc(F)cc1)C(=O)c1cn(CC(=O)N2CCOCC2)c2ccccc12  9.49%
41. O=c1[nH]c(O)c(C=Nc2cc(F)cc(F)c2)c(=O)[nH]1  10.4%
42. CC(OC(=O)Cc1c(F)cccc1Cl)C(=O)NC1CCCCC1C (centres unmarked)  10.5%
43. N#Cc1nnn(-c2ccc(Cl)cc2)c1N  11.6%
44. Cc1cc(C)c2c(-n3cccc3)nn(CC#N)c2n1  11.9%
45. COc1ccccc1C1CC(c2ccccc2)=NN1S(=O)(=O)c1ccccc1 (centres unmarked)  12%
46. CC(=O)n1cc(Nc2ccccc2C(=O)O)c2ccccc21  12.3%
47. CCCC(O)(CCC)C(=O)NNc1ccccc1  12.4%
48. CCc1[nH]nc2c1C(c1cccc(OC(=O)N3CCOCC3)c1)C(C#N)=C(N)O2 (centres unmarked)  12.5%
49. O=C(CN1N=C(c2ccccc2)CCC1=O)NCc1cccs1  13.9%
50. CCOC(=O)[C@@H]1[C@H]2COc3ccccc3[C@H]2N2C(=O)N(c3ccc(C(F)(F)F)cc3)C(=O)[C@]12C  14.5%
51. COP(=O)(OC)Oc1ccc(C(O)C(Cl)(Cl)Cl)cc1 (centres unmarked)  15.1%
52. Cc1ccc(NC(=O)CCC(=O)Nc2nnc(C3CCCCC3)s2)cc1  18.4%
53. O=C(NC(=S)Nc1ccc(N2CCOCC2)c(Cl)c1)c1cccs1  19.8%
54. COc1ccccc1/C=C/C(=O)Nc1cccnc1Cl  21.8%
55. CC1CCC(NC(=O)Nc2cccs2)CC1 (centres unmarked)  26.1%
56. O=C(COc1ccc2c(c1)OCO2)Nc1nnc(Cc2ccccc2)s1  38.3%
